Among all 310,000 compounds or so, about 14,000 (4.5%) showed an effect of 50% or more. The effect is printed as a negative number. Some of the results follow.
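Note: peak tail current of the secondary pulse compared with the same well before compound.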

Sequence of human ether-à-go-go-related gene (hERG) potassium channel (Q12809 whole entry, looked up): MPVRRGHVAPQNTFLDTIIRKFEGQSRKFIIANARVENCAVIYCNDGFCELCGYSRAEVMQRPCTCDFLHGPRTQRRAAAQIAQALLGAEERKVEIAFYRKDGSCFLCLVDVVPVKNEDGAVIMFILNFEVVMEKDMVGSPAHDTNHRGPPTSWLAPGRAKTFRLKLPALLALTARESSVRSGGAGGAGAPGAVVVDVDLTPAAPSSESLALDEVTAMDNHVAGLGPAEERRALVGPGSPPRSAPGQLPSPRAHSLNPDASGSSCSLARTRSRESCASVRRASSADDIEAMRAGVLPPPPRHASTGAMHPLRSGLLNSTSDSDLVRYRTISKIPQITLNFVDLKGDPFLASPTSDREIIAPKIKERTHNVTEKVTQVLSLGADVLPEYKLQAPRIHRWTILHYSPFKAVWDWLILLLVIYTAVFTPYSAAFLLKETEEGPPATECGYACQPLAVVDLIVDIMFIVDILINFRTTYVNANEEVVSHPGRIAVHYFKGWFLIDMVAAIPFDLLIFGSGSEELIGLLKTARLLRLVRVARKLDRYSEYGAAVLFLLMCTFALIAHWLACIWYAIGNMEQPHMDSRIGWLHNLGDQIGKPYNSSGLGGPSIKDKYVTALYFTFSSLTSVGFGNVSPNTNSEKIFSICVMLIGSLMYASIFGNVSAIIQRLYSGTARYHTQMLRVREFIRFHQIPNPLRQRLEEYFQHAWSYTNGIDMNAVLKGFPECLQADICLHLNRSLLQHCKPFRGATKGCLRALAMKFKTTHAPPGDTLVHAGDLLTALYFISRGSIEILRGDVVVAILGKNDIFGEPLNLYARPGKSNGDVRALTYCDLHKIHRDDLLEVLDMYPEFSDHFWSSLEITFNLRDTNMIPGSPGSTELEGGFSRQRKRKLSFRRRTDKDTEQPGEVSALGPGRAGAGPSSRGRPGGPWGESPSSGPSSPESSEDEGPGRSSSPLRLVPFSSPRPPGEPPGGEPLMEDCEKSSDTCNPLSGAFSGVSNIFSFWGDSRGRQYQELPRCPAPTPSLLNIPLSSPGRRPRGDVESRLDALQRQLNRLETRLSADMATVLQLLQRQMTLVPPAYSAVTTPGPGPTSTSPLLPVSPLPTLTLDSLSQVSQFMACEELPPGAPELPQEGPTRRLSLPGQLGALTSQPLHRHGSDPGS

This test concerns the target human ether-à-go-go-related gene (hERG) potassium channel (human, UniProt Q12809). Description: primary screen, population patch clamp on CHO cells stably expressing hERG.
In the case of `COC(=O)CSc1ccc2nnc(-c3ccc(F)cc3)n2n1`, the “hERG current change (%, negative = inhibition) at 10uM” value is reported as -43.7%.
The same measure for `CC(C)Oc1ccc(C(CC(=O)O)NC(=O)CSc2ncn[nH]2)cc1` (centres unmarked): -2.91%.
With `COc1ccccc1C(=O)COC(=O)c1cc(S(=O)(=O)N2CCCCC2)ccc1N1CCOCC1`, the “hERG current change (%, negative = inhibition) at 10uM” value is on record as -6.99%.
To `CCCCc1ccc(NC(=O)N2CCN(c3cc(C)nc4ccccc34)CC2)c(C)c1` belongs -61.6%.
`COc1ccc(/C=C\c2cc(OC)c(OC)cc2CC[N+](C)(C)C)cc1OC.[I-]`: the “hERG current change (%, negative = inhibition) at 10uM” value was 8.77%.
To `CS(=O)(=O)N1CCc2cc(C(=O)Nc3ccc(Br)cc3)ccc21` belongs 14.3%.
As to `COc1ccc(CCN(C)C2CCCN(C(=O)Cn3cccn3)C2)cc1OC` (centres unmarked), the “hERG current change (%, negative = inhibition) at 10uM” value is on record as -6.28%.
Turning to `CNC(=S)NNC(=O)Cc1ccc(OC)c(OC)c1`, the “hERG current change (%, negative = inhibition) at 10uM” value is on record as 10.7%.
To `CN(C)c1ccc(NC(=S)N(CCc2ccccc2)C2CC(=O)N(c3c(Cl)cccc3Cl)C2=O)cc1` (centres unmarked) belongs -3.52%; to `CCn1c(COc2ccc(=O)n(-c3ccccc3)n2)nnc1SCc1cccc(OC)c1`, -39.1%.
To `COc1cccc(C2C3=C(CC(C)(C)CC3=O)Nc3cc4c(cc32)OCO4)c1` (centres unmarked) belongs -12.8%.
On to `CC1=C(C(=O)OC2CCCCC2)C(c2ccc(N(C)C)cc2)NC(=O)N1` (centres unmarked), for which the “hERG current change (%, negative = inhibition) at 10uM” value is listed as 11.1%.
As to `CN(c1ccc(OCC(=O)OCC(=O)NC2CCCC2)cc1)S(=O)(=O)c1ccc2ccccc2c1`, the “hERG current change (%, negative = inhibition) at 10uM” value came out at 3.07%.
To `Cc1ccc(NC(=O)C(c2ccccc2)c2ccccc2)c(O)c1` belongs -8.04%.
The same measure for `COc1cccc(C(=O)Nc2cccc(OCC(=O)c3ccccc3)c2)c1`: 15.8%; for `Cc1oc(-c2ccccc2Cl)nc1CS(=O)CC(=O)NCCc1ccccc1` (centres unmarked): -17.5%; for `Cc1cccc(/C=C2\Sc3ccc(C(=O)N4CCCCC4)cc3N(C)C2=O)c1`: 12.1%.
Turning to `CC(=O)NCC(=O)N(Cc1ccco1)C1(C(=O)NC2CCCCC2)CCCCC1`, the “hERG current change (%, negative = inhibition) at 10uM” value is on record as -6.49%.
To `COc1cc(NC(=O)c2ccno2)cc(C(=O)Nc2cccc(C(F)(F)F)c2)c1` belongs -44.9%; to `O=C(N/N=C/c1cccc(OC2CSC2)c1)c1ccccc1O`, 10.3%.
`CC1CCN(C(=O)CSc2nc(=O)n3ccccc3n2)CC1`: the “hERG current change (%, negative = inhibition) at 10uM” value was found to be 8.67%.
To `COc1ccc(N2CCN(c3ccnc4cc(Cl)ccc34)CC2)cc1` belongs -36.5%; to `CC(C)CN(CC(C)C)c1nc(N)c(C#N)c(CC#N)c1C#N`, -36%.
Consider `CCCn1c(C)cc(C(=O)COc2ccc(-c3nnco3)cc2)c1C`, for which the “hERG current change (%, negative = inhibition) at 10uM” value was 9.87%.
The same measure for `COc1ccc(C2=NOC3(CC(=O)N(c4ccc(C)cc4)C3=O)C2)c(OC)c1` (centres unmarked): 4.08%; for `COc1ccc(CNC(=O)C2CCN(S(=O)(=O)c3ccc4nc5c(c(C(=O)O)c4c3)CC(C)CC5)CC2)cc1` (centres unmarked): 15.1%.
For `Cn1c(CCC(=O)Nc2cc(S(C)(=O)=O)ccc2Cl)nc2cc(S(=O)(=O)N3CCOCC3)ccc21`, the “hERG current change (%, negative = inhibition) at 10uM” value was -25.4%.
The same measure for `CC(C)[C@H](NC(=O)C1CC(=O)N(c2ccc3c(c2)OCO3)C1)C(=O)NC1CCCC1` (some centres unmarked): 13.1%; for `COc1cc(C(=O)NC2=NCCS2)cc(OC)c1OC`: 3.84%.
To `COc1cc([N+](=O)[O-])ccc1NC(=O)NCCCN1CCCC1=O` belongs 4.07%; to `C=CCNC(=O)C1CC(=O)N(c2ccc(OCC(=O)Nc3ccc(C)cc3)cc2)C1` (centres unmarked), -9.59%; to `Cc1ccc(NC2=C(N3CCOCC3)C(=O)c3ccccc3C2=O)cc1`, -21.4%.
For the compound `Cc1c(NC(=O)C(C)OC(=O)CCC2CCCC2)c(=O)n(-c2ccccc2)n1C` (centres unmarked), the “hERG current change (%, negative = inhibition) at 10uM” value is on record as -3.92%.
To `COc1cc(N2C(=O)c3ccccc3C2=O)c(Cl)cc1C(=O)OCC(=O)N1CCOCC1` belongs -9.43%; to `Cc1cccc(C)c1NC(=O)CNC(=O)C1CC(=O)N(Cc2ccccc2)C1` (centres unmarked), -3.54%.
The same measure for `O=C1CC(NCc2cccs2)C(=O)N1c1ccc(Cl)cc1` (centres unmarked): -10.3%; for `Cc1ccn2cc(-c3cccc(NS(C)(=O)=O)c3)nc2c1`: -26.2%.
To `Cc1cc(=O)oc2cc(NC(=O)C(C)Oc3ccccc3)ccc12` (centres unmarked) belongs 5.16%; to `CCOc1ccccc1/C=N/NC(=O)c1cccc(S(=O)(=O)N2CCOCC2)c1`, 5.25%.
Consider `CCc1cccc2c(=O)c(C(=O)NCCCOC)c[nH]c12`, for which the “hERG current change (%, negative = inhibition) at 10uM” value amounted to 10.6%.
Take `Cc1cccc(C2N(c3nccs3)C(=O)C3CCCN32)c1` (centres unmarked): the “hERG current change (%, negative = inhibition) at 10uM” value worked out at 0.23%.
To `O=c1oc(-c2ccc(F)cc2)nc2ccsc12` belongs 13.5%; to `COc1ccccc1N1CCN(CCCC(=O)c2ccc(F)cc2)CC1`, -71.7%.
To `c1ccc2c(c1)CSc1ccccc1C2C1=NCCN1` (centres unmarked) belongs 5.85%.
